Measured values as given in the supplement of paper PMC9446081.
The whole screen tested about 39,000 compounds, of which about 220 (0.56%) showed activity. This is one part of the list.
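Further: static incubation at 37 °C against the wild-type strain, values averaged over two biological replicates.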

The compounds below were run on Escherichia coli K-12 BW25113 (assay: relative growth (OD600 normalised to plate interquartile mean) (fraction); higher = less growth inhibition, active = 0.2 or less). Conditions: 50 µM; LB; incubation time: overnight (16-24 h).
With `COc1ccc(CCNC(=O)[C@@]2(Cc3ccccc3I)c3ccccc3C(=O)N(Cc3ccccc3OC)[C@H]2c2ccc(CO)cc2)cc1` the relative growth was inactive: 1.03.
For `CC(N)(Cc1cccc(O)c1)C(=O)O` (stereo not drawn), the relative growth was inactive: 0.968.
In the case of `O=C(N[C@H]1C=C[C@H](CC(=O)N2CCOCC2)O[C@@H]1CO)c1ccccn1`, the relative growth is reported as inactive: 0.967.
For `CO[C@H]1CN(C)C(=O)c2ccc(NC(=O)Nc3ccccc3)cc2OC[C@H](C)N(C(=O)CN(C)C)C[C@H]1C`, the relative growth was inactive: 1.04.
In the case of `C[C@@H]1CN([C@@H](C)CO)C(=O)c2cc(NC(=O)Nc3ccc(C(F)(F)F)cc3)ccc2O[C@@H](C)CCCCO[C@@H]1CN(C)C(=O)Nc1ccc2c(c1)OCO2`, the relative growth is reported as inactive: 1.03.
With `COc1ccc(C(=O)Nc2ccc3c(c2)C(=O)N(C)[C@@H]2CC[C@@H](CC(=O)NCC4CC4)O[C@H]2CO3)cc1` the relative growth was inactive: 0.96.
In the case of `O=C1CC2(CCCC2)CC(=O)N1`, the relative growth is reported as inactive: 0.987.
`COc1ccc(S(=O)(=O)N(C)C[C@@H]2Oc3ccc(NC(=O)Cn4cnnn4)cc3C(=O)N([C@H](C)CO)C[C@H]2C)cc1` was tested, and the relative growth was inactive: 1.
In the case of `C[C@@H]1CN([C@@H](C)CO)C(=O)CCCn2cc(nn2)CO[C@@H]1CN(C)Cc1ccc(C(=O)Nc2ccccc2N)cc1`, the relative growth is reported as inactive: 0.97.
In the case of `Cc1ccc(S[C@]2(C(=O)NCC(F)(F)F)CC(=O)N(Cc3cc(C(F)(F)F)cc(C(F)(F)F)c3)[C@@H]2c2ccc(CO)cc2I)cc1`, the relative growth is reported as inactive: 0.86.
For `COCC#Cc1ccc2c(c1)O[C@H](CN(C)S(=O)(=O)c1cccc(F)c1)[C@@H](C)CN([C@H](C)CO)S2(=O)=O`, the relative growth was inactive: 1.01.
`Cc1noc(C)c1S(=O)(=O)Nc1ccc2c(c1)C(=O)N([C@@H](C)CO)C[C@@H](C)[C@@H](CN(C)Cc1ccc(-c3ccccc3)cc1)O2` was tested, and the relative growth was inactive: 0.965.
For `C[C@@H]1CN([C@H](C)CO)C(=O)Cc2cc(NS(C)(=O)=O)ccc2O[C@H]1CN(C)S(=O)(=O)c1ccccc1`, the relative growth was inactive: 1.09.
With `COCC(=O)N1C[C@H](C)[C@H](OC)CN(C)C(=O)c2cc(NC(=O)c3cc(C)on3)ccc2OC[C@H]1C` the relative growth was inactive: 0.996.
In the case of `CCNC(=O)[C@@H]1CCCN1C(=O)[C@H](CCCNC(=N)N)NC(=O)[C@H](CC(C)C)NC(=O)[C@@H](CC(C)C)NC(=O)[C@H](Cc1ccc(O)cc1)NC(=O)[C@H](CO)NC(=O)[C@H](Cc1c[nH]c2ccccc12)NC(=O)[C@H](Cc1cnc[nH]1)NC(=O)[C@@H]1CCC(=O)N1`, the relative growth is reported as inactive: 1.02.
`C[C@@H]1CN([C@@H](C)CO)C(=O)Cc2cc(NS(=O)(=O)c3cn(C)cn3)ccc2O[C@H]1CN(C)Cc1ccncc1` was tested, and the relative growth was inactive: 0.981.
`Cc1noc(C)c1NC(=O)N(C)C[C@H]1OCCCC[C@@H](C)Oc2ccc(NC(=O)C3CCCCC3)cc2C(=O)N([C@@H](C)CO)C[C@@H]1C` was tested, and the relative growth was inactive: 0.969.
For `CCC1OC(=O)CC(O)C(C)C(OC2OC(C)C(O)C(N(C)C)C2O)C(CCN2CC(C)CC(C)C2)CC(C)C(=O)C=CC(C)=CC1COC1OC(C)C(O)C(OC)C1OC` (stereo not drawn), the relative growth was inactive: 0.864.
`CC(C)NC(=O)Nc1ccc2c(c1)CC(=O)N([C@@H](C)CO)C[C@H](C)[C@H](CN(C)S(=O)(=O)c1ccc(F)cc1)O2` was tested, and the relative growth was inactive: 0.99.
For `C[C@@H]1CN([C@H](C)CO)C(=O)c2cc(C#Cc3ccccc3)cnc2O[C@@H]1CN(C)C(=O)CCN1CCCCC1`, the relative growth was inactive: 1.
In the case of `COCC(=O)Nc1ccc2c(c1)C(=O)N(C)[C@H]1CC[C@H](CC(=O)NCc3ccc(OC)cc3)O[C@@H]1CO2`, the relative growth is reported as inactive: 0.992.
For `COc1ccc(NC(=O)Nc2cccc3c2O[C@H](CN(C)Cc2ccc(C(=O)Nc4ccccc4N)cc2)[C@H](C)CN([C@@H](C)CO)C3=O)cc1`, the relative growth was inactive: 0.982.
For `C[C@@H]1CN([C@H](C)CO)C(=O)c2cccc(NS(=O)(=O)c3cn(C)cn3)c2O[C@H]1CN(C)S(=O)(=O)c1ccccc1`, the relative growth was inactive: 0.996.
In the case of `C[C@H]1CN([C@@H](C)CO)C(=O)c2cc(C#CC3(O)CCCC3)cnc2O[C@@H]1CN(C)S(=O)(=O)c1cccc(F)c1`, the relative growth is reported as inactive: 1.01.
In the case of `COc1ccc(CN(C)C[C@@H]2OCCCC[C@H](C)Oc3ccc(NC(=O)NC4CCCCC4)cc3C(=O)N([C@@H](C)CO)C[C@H]2C)cc1`, the relative growth is reported as inactive: 0.979.
In the case of `O=C(CNCCO)Nc1ccc(F)c(Cl)c1`, the relative growth is reported as inactive: 0.957.
With `Cc1cc(C(=O)Nc2cccc3c2O[C@H](CN(C)Cc2ccc4c(c2)OCO4)[C@H](C)CN([C@H](C)CO)C3=O)n(C)n1` the relative growth was inactive: 0.98.
For `COc1ccc(C=CC(=O)O)cc1OC`, the relative growth was inactive: 0.968.
In the case of `O=c1nc(NCCN2CCOCC2)cn[nH]1`, the relative growth is reported as inactive: 0.998.
For `OCC(O)CO`, the relative growth was inactive: 1.01.
In the case of `Cn1nnc2cc(CO)ccc21`, the relative growth is reported as inactive: 1.01.
With `CCN(CC)CCCCNc1ncc2cc(-c3cc(OC)cc(OC)c3)c(NC(=O)NC(C)(C)C)nc2n1` the relative growth was inactive: 0.848.
In the case of `O=C(C[C@@H]1C[C@@H]2c3cc(NC(=O)Nc4ccccc4F)ccc3O[C@@H]2[C@@H](CO)O1)NCc1ccc(Oc2ccccc2)cc1`, the relative growth is reported as inactive: 1.
In the case of `C[C@H](CO)N1C[C@H](C)[C@H](CN(C)Cc2ccc(Cl)c(Cl)c2)Oc2c(NC(=O)NC3CCCCC3)cccc2C1=O`, the relative growth is reported as inactive: 1.02.
For `O=C(C[C@H]1CC[C@H]2[C@@H](COC[C@@H](O)CN2Cc2cc(F)ccc2F)O1)N[C@H]1CCN(Cc2ccccc2)C1`, the relative growth was inactive: 0.997.
In the case of `COCCN1CCO[C@@H]2CN(Cc3cnn(C)c3)C[C@@H]21`, the relative growth is reported as inactive: 0.99.
`Cc1noc(C)c1S(=O)(=O)Nc1ccc2c(c1)CC(=O)N([C@@H](C)CO)C[C@@H](C)[C@@H](CN(C)S(=O)(=O)c1ccccc1)O2` was tested, and the relative growth was inactive: 1.01.
For `O=C(O)c1ccoc1`, the relative growth was inactive: 1.03.
`O=C(C[C@@H]1CC[C@@H]2[C@H](COC[C@@H](O)CN2C(=O)Nc2cccc(F)c2)O1)NCc1ccccc1Cl` was tested, and the relative growth was inactive: 0.966.
With `CCS(=O)(=O)N1Cc2nccn2C[C@H](Cn2ncccc2=O)C1` the relative growth was inactive: 1.01.
`CC(C)NC(=O)N(C)C[C@H]1OCCCC[C@@H](C)Oc2ccc(NS(C)(=O)=O)cc2C(=O)N([C@@H](C)CO)C[C@@H]1C` was tested, and the relative growth was inactive: 0.968.
In the case of `O=C(C[C@@H]1CC[C@H]2[C@@H](COC[C@H](O)CN2C(=O)Nc2ccc(Cl)cc2)O1)NC1Cc2ccccc2C1`, the relative growth is reported as inactive: 0.923.
`CO[C@@H]1CN(C)C(=O)c2cc(NS(C)(=O)=O)ccc2OC[C@@H](C)N(S(C)(=O)=O)C[C@@H]1C` was tested, and the relative growth was inactive: 1.04.
For `C[C@@H]1CN([C@H](C)CO)C(=O)Cc2cc(NC(=O)Nc3ccc(F)cc3)ccc2O[C@H]1CN(C)C(=O)Nc1ccc(C(F)(F)F)cc1`, the relative growth was inactive: 0.993.
For `C[C@@H]1CN([C@@H](C)CO)C(=O)c2cccc(NS(=O)(=O)c3ccc(F)cc3)c2O[C@H]1CN(C)C(=O)Nc1cccc2ccccc12`, the relative growth was inactive: 0.983.
`C[C@H](CO)N1C[C@H](C)[C@H](CN(C)S(=O)(=O)c2cn(C)cn2)Oc2ccc(NS(=O)(=O)c3ccc(F)cc3)cc2C1=O` was tested, and the relative growth was inactive: 1.01.
For `C#CC1(O)CCC2C3CCC4=CC(=O)CCC4C3CCC21C` (stereo not drawn), the relative growth was inactive: 1.06.
With `COc1ccc(S(=O)(=O)Nc2ccc3c(c2)C(=O)N([C@@H](C)CO)C[C@@H](C)[C@@H](CN(C)S(=O)(=O)c2ccc(F)cc2)O3)cc1` the relative growth was inactive: 1.02.
`C[C@@H]1CN([C@@H](C)CO)C(=O)c2cc(NC(=O)Nc3ccc(F)cc3)ccc2O[C@@H](C)CCCCO[C@@H]1CN(C)S(=O)(=O)c1ccccc1` was tested, and the relative growth was inactive: 1.03.
For `Cc1oc2ccccc2c1-c1csc(-c2ccccc2)n1`, the relative growth was inactive: 1.02.
With `C[C@@H]1CN([C@H](C)CO)C(=O)c2cccc(NC(=O)Nc3ccc(F)cc3)c2O[C@H]1CN(C)S(C)(=O)=O` the relative growth was inactive: 0.978.
In the case of `Cc1cccc2ccccc12`, the relative growth is reported as inactive: 0.998.
With `CN1C(=O)CCC1c1cccnc1` (stereo not drawn) the relative growth was inactive: 1.
In the case of `COc1cccc(S(=O)(=O)N[C@H]2CC[C@H](CCn3cc(-c4ccccc4OC)nn3)O[C@@H]2CO)c1`, the relative growth is reported as inactive: 1.01.
With `C[C@H](CO)N1C[C@H](C)[C@@H](CN(C)Cc2ccccc2)OCCCC[C@H](C)Oc2ccc(NC(=O)Cc3ccccc3)cc2C1=O` the relative growth was inactive: 1.01.
In the case of `C[C@@H]1CN([C@H](C)CO)C(=O)Cc2cc(NC(=O)Nc3ccc(C(F)(F)F)cc3)ccc2O[C@H]1CN(C)Cc1ccc(C(F)(F)F)cc1`, the relative growth is reported as inactive: 1.06.
With `Cc1noc(C)c1NC(=O)N[C@@H]1C=C[C@H](CC(=O)N2CCN(C)CC2)O[C@H]1CO` the relative growth was inactive: 0.997.
In the case of `C[C@H](CO)N1C[C@H](C)[C@H](CN(C)CC2CCCCC2)Oc2ccc(NC(=O)Cn3cnnn3)cc2CC1=O`, the relative growth is reported as inactive: 0.965.
With `C[C@H](NC(=O)C[C@H]1C[C@@H]2c3cc(NC(=O)Nc4ccc(C(F)(F)F)cc4)ccc3O[C@@H]2[C@@H](CO)O1)c1ccccc1` the relative growth was inactive: 0.982.
For `COc1ccc(S(=O)(=O)Nc2ccc3c(c2)C(=O)N([C@H](C)CO)C[C@H](C)[C@H](CN(C)S(=O)(=O)c2ccc(OC)cc2)O3)cc1`, the relative growth was inactive: 0.995.
With `COc1ccc(CN(C)C[C@H]2Oc3ccc(NC(=O)Cn4cnnn4)cc3C(=O)N([C@H](C)CO)C[C@H]2C)cc1` the relative growth was inactive: 0.985.
In the case of `Cc1ccc(S(=O)(=O)Nc2ccc3c(c2)C(=O)N([C@H](C)CO)C[C@H](C)[C@@H](CN(C)C(=O)CCC(F)(F)F)OCCCC[C@H](C)O3)cc1`, the relative growth is reported as inactive: 1.02.
With `COC(=O)[C@H](Cc1ccccc1)N1C[C@](C)(OC(C)C)O[C@@H](CCn2cc(COc3ccccc3/C=C(C)/C=C/C(=O)NO)nn2)[C@@H]1/C=C/C1CC1` the relative growth was inactive: 1.05.
